According to the supplement of paper PMC12217912:
Some of the results follow. The full chains were built here from the parent and the listed change. Values near 0.05 are background.

B1: TEV protease; numbered along this chain (parent)
chain: MGESLFKGPRDYNPISSSICHLTNESDGHTTSLYGIGFGPFIITNKHLFRRNNGTLVVQSLHGVFKVKDTTTLQQHLVDGRDMIIIRMPKDFPPFPQKLKFREPQREERICLVTTNFQTKSMSSMVSDTSCTFPSGDGIFWKHWIQTKDGQCGSPLVSTRDGFIVGIHSASNFTNTNNYFTSVPKNFMELLTNQEAQQWVSGWRLNADSVLWGGHKVFMVKPEEPFQPVKEATQL

Variants of: B1
Test: raw area under fraction-flipped curve 0-4 h after induction (AUC4h, not background-subtracted), DNA-recorder readout of cleavage of the substrate (dimensionless); higher = more cleavage of the substrate by the protease variant
Conditions: temperature: 34 °C; time window: 0-4 h after rhamnose induction
Procedure: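 In vivo DNA recorder in E. coli TOP10(DE3) ΔrhaA at 34 °C. Each TEVp single-site mutant (parent TEVp 0) is paired with a single-site variant of the 7-mer TEVs (canonical ENLYFQ|S). The substrate sits between flexible linkers in a Bxb1-sfGFP-TEVs-SsrA fusion, so cleavage stabilises Bxb1 and speeds flipping of a recombination array, read by NGS. The value is the raw area under the fraction-flipped curve over 0-4 h after rhamnose induction (AUC4h), with ≥20 reads per time point. It is not background-subtracted; inactive controls average about 0.047.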
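Further: Bxb1 expression induced with 0.2% (w/v) L-rhamnose at OD600 near 0.5, cultures sampled hourly, flipped fraction per protease–substrate barcode pair counted by paired-end Illumina sequencing.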

Row | Variant | area with substrate ENLYAQS | area with substrate ENLYCQS | area with substrate ENLYDQS | area with substrate ENLYEQS | area with substrate ENLYHQS | area with substrate ENLYIQS | area with substrate ENLYKQS | area with substrate ENLYMQS | area with substrate ENLYNQS | area with substrate ENLYPQS | area with substrate ENLYQQS | area with substrate ENLYRQS | area with substrate ENLYSQS | area with substrate ENLYWQS | area with substrate ENLYYQS | area with substrate ENLYVQS | area with substrate ENLYGQS | area with substrate ENLYLQS | area with substrate ENLYTQS
1 | Q118S | 0.0755 | 0.0939 | 0.0484 | 0.0613 | 0.0501 | 0.147 | 0.0996 | 0.0855 | 0.0768 | 0.0894 | 0.0639 | 0.0489 | 0.074 | 0.0748 | 0.083 | – | – | – | –
2 | L211V | – | 0.0679 | 0.063 | 0.0698 | – | 0.114 | 0.0758 | 0.0843 | – | – | – | – | – | 0.0528 | – | 0.124 | – | – | –
3 | N193I | – | 0.087 | 0.0787 | – | 0.0802 | 0.116 | 0.0459 | 0.0802 | 0.116 | 0.0728 | – | 0.0668 | 0.0655 | 0.0834 | – | – | 0.0484 | – | –
4 | L22R | – | 0.0358 | 0.0461 | 0.0376 | 0.0542 | 0.0432 | 0.0402 | 0.0422 | 0.0463 | 0.0692 | 0.044 | 0.0598 | 0.0468 | 0.0342 | 0.0473 | 0.0618 | 0.0497 | – | –
5 | I15Y | 0.0501 | – | 0.0503 | 0.0663 | 0.0834 | – | 0.101 | 0.0769 | 0.0641 | 0.0712 | 0.0596 | 0.0568 | 0.0647 | 0.0664 | 0.0666 | 0.112 | 0.0653 | – | –
6 | I15A | 0.0697 | – | 0.0462 | 0.0609 | 0.0666 | 0.102 | 0.069 | – | 0.0643 | 0.07 | 0.0437 | 0.058 | 0.08 | 0.0609 | 0.0557 | 0.106 | – | – | –
7 | D82F | 0.0593 | – | 0.053 | 0.0524 | 0.0723 | 0.0574 | 0.0579 | 0.0503 | 0.0579 | 0.0575 | 0.0154 | – | – | – | 0.0658 | 0.0612 | 0.0655 | 0.0599 | –
8 | C20H | 0.0461 | 0.0484 | 0.0568 | 0.0412 | 0.0501 | 0.0632 | – | 0.0557 | 0.0471 | 0.0408 | 0.0475 | 0.0475 | 0.0518 | 0.0484 | 0.0494 | 0.059 | 0.0613 | – | 0.0565
9 | G166P | 0.0596 | – | 0.0518 | 0.0463 | 0.0446 | – | – | – | 0.0502 | 0.0483 | 0.0467 | 0.0543 | – | 0.0462 | – | 0.0434 | 0.0434 | – | 0.0462
10 | D161T | 0.0677 | – | 0.0584 | 0.0712 | 0.068 | 0.0741 | 0.0349 | 0.0884 | 0.0626 | 0.0611 | 0.0535 | – | 0.0597 | 0.0697 | 0.0357 | 0.107 | 0.0584 | 0.0781 | –
11 | D69I | 0.0682 | – | 0.0503 | – | 0.0696 | 0.0822 | 0.0269 | – | – | – | – | 0.0615 | 0.0584 | 0.0571 | 0.0502 | 0.0613 | 0.0598 | – | –
12 | D69C | 0.0697 | – | 0.07 | 0.0456 | 0.0601 | 0.103 | 0.0601 | 0.0659 | 0.0761 | 0.0694 | – | 0.0291 | – | 0.0943 | 0.0261 | 0.105 | 0.102 | 0.0799 | –
13 | T70W | 0.0648 | 0.062 | 0.0628 | 0.0618 | 0.0632 | 0.0727 | 0.0794 | 0.0654 | 0.0569 | 0.0766 | 0.0618 | 0.0629 | – | 0.0607 | 0.0594 | 0.0696 | 0.0655 | 0.062 | –
14 | P9W | 0.0682 | 0.0996 | 0.0634 | 0.0697 | 0.0678 | 0.114 | 0.0599 | 0.0812 | 0.0692 | 0.0462 | 0.0784 | 0.0619 | 0.0823 | 0.0764 | 0.0692 | 0.118 | – | 0.113 | 0.0325
15 | S182A | 0.0835 | – | – | 0.083 | 0.0625 | – | 0.0671 | – | 0.0962 | 0.0989 | 0.0985 | – | – | – | 0.0805 | – | 0.0342 | – | –
16 | K120Q | 0.0701 | 0.0869 | 0.0378 | 0.0651 | 0.0782 | – | 0.0664 | – | 0.0572 | – | 0.0519 | 0.0518 | 0.0919 | 0.0826 | – | – | – | 0.0927 | 0.0862
17 | I164T | 0.0442 | – | 0.066 | 0.0633 | 0.0587 | 0.0753 | 0.0512 | 0.0498 | 0.063 | 0.0689 | 0.0448 | 0.0456 | 0.0659 | 0.0601 | – | 0.0969 | 0.0585 | – | –
18 | I164Y | 0.0767 | – | 0.0491 | 0.0605 | 0.0518 | – | 0.0465 | 0.0662 | 0.0505 | 0.0583 | 0.0783 | – | 0.0505 | 0.0465 | 0.0472 | 0.0541 | 0.0653 | 0.057 | 0.0604
19 | S201I | – | 0.0927 | 0.0455 | 0.0599 | 0.0722 | 0.114 | 0.0431 | 0.0772 | 0.0558 | 0.0676 | – | 0.0629 | 0.0868 | 0.0834 | 0.0615 | 0.0981 | 0.0649 | 0.0725 | 0.0567
20 | E25Q | 0.0711 | – | 0.0622 | 0.068 | – | – | 0.0219 | 0.0745 | 0.0758 | 0.0644 | 0.0722 | 0.0556 | – | 0.0728 | 0.0695 | 0.105 | 0.066 | 0.0833 | –
21 | G214A | 0.0688 | – | 0.0591 | 0.0269 | 0.0597 | – | – | 0.0783 | 0.0529 | – | – | – | – | – | – | 0.0734 | 0.0654 | 0.0454 | –
22 | S154P | – | 0.0356 | – | 0.0578 | 0.0602 | 0.0563 | 0.0585 | – | 0.0499 | 0.0668 | 0.048 | 0.0742 | – | – | – | – | 0.059 | – | –
23 | H76S | 0.0828 | 0.0875 | 0.0465 | 0.0737 | 0.0673 | 0.0776 | 0.0524 | 0.0933 | – | 0.0435 | 0.0701 | 0.0742 | – | 0.0765 | 0.0822 | 0.138 | 0.0662 | 0.0768 | 0.0816
24 | H215R | 0.0701 | 0.0701 | 0.0581 | 0.0636 | 0.0417 | 0.0364 | – | 0.0597 | 0.0694 | 0.07 | 0.0642 | – | – | 0.0479 | 0.0506 | 0.0728 | 0.0545 | 0.0607 | 0.0597
25 | G202L | – | 0.0641 | 0.0634 | 0.0661 | 0.0387 | – | – | 0.0639 | 0.0735 | 0.0577 | – | 0.0604 | 0.0601 | 0.0416 | 0.0591 | 0.0821 | 0.0552 | 0.053 | 0.0487
